# Measurements from the supplement of paper PMC8728848.
# The other results are listed elsewhere or left out.
# What was measured:
# Experiment in all cases: glycan array binding signal (z-score within array); higher = stronger binding
# Conditions in all cases: glycan notation: IUPAC condensed, linker removed
# [1] = target: Neu5Ac(a2-6)Gal(b1-4)GlcNAc(b1-2)Man(a1-3)[Man(a1-6)]Man(b1-4)GlcNAc(b1-4)GlcNAc
# Method in brief: (§1)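 The Consortium for Functional Glycomics database supplied 3228 glycan arrays, of which those lacking an available protein sequence were dropped. The binding signal, a within-array Z-score, was averaged across arrays of the same protein sequence and across linkers. Negative scores can be read as non-binding.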
# [2] = target: Neu5Ac(a2-6)Gal(b1-4)GlcNAc(b1-2)Man(a1-3)[Neu5Ac(a2-3)Gal(b1-4)GlcNAc(b1-2)Man(a1-6)]Man(b1-4)GlcNAc(b1-4)GlcNAc
# Method in brief: as §1
# [3] = target: Neu5Ac(a2-6)Gal(b1-4)GlcNAc(b1-2)Man(a1-3)[Neu5Ac(a2-6)Gal(b1-4)GlcNAc(b1-2)Man(a1-6)]Man(b1-4)GlcNAc(b1-4)GlcNAc
# Method in brief: as §1
# [4] = target: Neu5Ac(a2-6)Gal(b1-4)GlcNAc(b1-2)Man(a1-3)[Neu5Ac(a2-6)Gal(b1-4)GlcNAc(b1-2)Man(a1-6)]Man(b1-4)GlcNAc(b1-4)[Fuc(a1-6)]GlcNAc
# Method in brief: as §1
# [5] = target: Neu5Ac(a2-6)Gal(b1-4)GlcNAc(b1-2)Man(a1-6)Man(b1-4)GlcNAc(b1-4)GlcNAc
# Method in brief: as §1
# [6] = target: Neu5Ac(a2-6)Gal(b1-4)GlcNAc(b1-2)Man(a1-6)[Gal(b1-4)GlcNAc(b1-2)Man(a1-3)]Man(b1-4)GlcNAc(b1-4)GlcNAc
# Method in brief: as §1
# [7] = target: Neu5Ac(a2-6)Gal(b1-4)GlcNAc(b1-2)Man(a1-6)[GlcNAc(b1-2)Man(a1-3)]Man(b1-4)GlcNAc(b1-4)GlcNAc
# Method in brief: as §1
# [8] = target: Neu5Ac(a2-6)Gal(b1-4)GlcNAc(b1-2)Man(a1-6)[Man(a1-3)]Man(b1-4)GlcNAc(b1-4)GlcNAc
# Method in brief: as §1
# [9] = target: Neu5Ac(a2-6)Gal(b1-4)GlcNAc(b1-2)[Neu5Ac(a2-6)Gal(b1-4)GlcNAc(b1-4)]Man(a1-3)[GlcNAc(b1-4)][Neu5Ac(a2-6)Gal(b1-4)GlcNAc(b1-2)[Neu5Ac(a2-6)Gal(b1-4)GlcNAc(b1-6)]Man(a1-6)]Man(b1-4)GlcNAc(b1-4)GlcNAc
# Method in brief: as §1
# [10] = target: Neu5Ac(a2-6)Gal(b1-4)GlcNAc(b1-2)[Neu5Ac(a2-6)Gal(b1-4)GlcNAc(b1-4)]Man(a1-3)[GlcNAc(b1-4)][Neu5Ac(a2-6)Gal(b1-4)GlcNAc(b1-4)Man(a1-6)]Man(b1-4)GlcNAc(b1-4)GlcNAc
# Method in brief: as §1
# [11] = target: Neu5Ac(a2-6)Gal(b1-4)GlcNAc(b1-2)[Neu5Ac(a2-6)Gal(b1-4)GlcNAc(b1-6)]Man(a1-6)[Neu5Ac(a2-6)Gal(b1-4)GlcNAc(b1-2)Man(a1-3)][GlcNAc(b1-4)]Man(b1-4)GlcNAc(b1-4)GlcNAc
# Method in brief: as §1
# [12] = target: Neu5Ac(a2-6)Gal(b1-4)GlcNAc(b1-3)Gal(b1-3)GlcNAc
# Method in brief: as §1
# [13] = target: Neu5Ac(a2-6)Gal(b1-4)GlcNAc(b1-3)Gal(b1-4)GlcNAc
# Method in brief: as §1
# [14] = target: Neu5Ac(a2-6)Gal(b1-4)GlcNAc(b1-3)Gal(b1-4)GlcNAc(b1-2)Man(a1-3)[Neu5Ac(a2-6)Gal(b1-4)GlcNAc(b1-3)Gal(b1-4)GlcNAc(b1-2)Man(a1-6)]GalNAc
# Method in brief: as §1
# [15] = target: Neu5Ac(a2-6)Gal(b1-4)GlcNAc(b1-3)Gal(b1-4)GlcNAc(b1-3)Gal(b1-4)GlcNAc
# Method in brief: as §1
# [16] = target: Neu5Ac(a2-6)Gal(b1-4)GlcNAc(b1-3)Gal(b1-4)GlcNAc(b1-3)Gal(b1-4)GlcNAc(b1-2)Man(a1-3)[Neu5Ac(a2-6)Gal(b1-4)GlcNAc(b1-3)Gal(b1-4)GlcNAc(b1-3)Gal(b1-4)GlcNAc(b1-2)Man(a1-6)]GalNAc
# Method in brief: as §1
# [17] = target: Neu5Ac(a2-6)Gal(b1-4)GlcNAc(b1-3)Gal(b1-4)GlcNAc(b1-3)GalNAc
# Method in brief: as §1
# [18] = target: Neu5Ac(a2-6)Gal(b1-4)GlcNAc(b1-3)Gal(b1-4)GlcNAc(b1-3)[Neu5Ac(a2-6)Gal(b1-4)GlcNAc(b1-3)Gal(b1-4)GlcNAc(b1-6)]GalNAc
# Method in brief: as §1
# [19] = target: Neu5Ac(a2-6)Gal(b1-4)GlcNAc(b1-3)Gal(b1-4)GlcNAc(b1-6)[Gal(b1-3)]GalNAc
# Method in brief: as §1
# [20] = target: Neu5Ac(a2-6)Gal(b1-4)GlcNAc(b1-3)Gal(b1-4)[Fuc(a1-3)]GlcNAc(b1-3)Gal(b1-4)[Fuc(a1-3)]GlcNAc
# Method in brief: as §1
# [21] = target: Neu5Ac(a2-6)Gal(b1-4)GlcNAc(b1-3)GalNAc
# Method in brief: as §1
# [22] = target: Neu5Ac(a2-6)Gal(b1-4)GlcNAc(b1-3)[Neu5Ac(a2-6)Gal(b1-4)GlcNAc(b1-6)]GalNAc
# Method in brief: as §1
# [23] = target: Neu5Ac(a2-6)Gal(b1-4)GlcNAc(b1-6)GalNAc
# Method in brief: as §1
# [24] = target: Neu5Ac(a2-6)Gal(b1-4)GlcNAc(b1-6)[Gal(b1-3)GlcNAc(b1-3)]Gal(b1-4)Glc
# Method in brief: as §1
# [25] = target: Neu5Ac(a2-6)Gal(b1-4)GlcNAc(b1-6)[Gal(b1-3)]GalNAc
# Method in brief: as §1
# [26] = target: Neu5Ac(a2-6)Gal(b1-4)GlcNAc6S
# Method in brief: as §1
# Neu5Ac(a2-6)GalNAc = target: Neu5Ac(a2-6)GalNAc
# Method in brief: as §1
# [27] = target: Neu5Ac(a2-6)GalNAc(b1-4)GlcNAc
# Method in brief: as §1
# [28] = target: Neu5Ac(a2-6)GalNAc(b1-4)GlcNAc6S
# Method in brief: as §1
# [29] = target: Neu5Ac(a2-6)GlcNAc(b1-4)GlcNAc
# Method in brief: as §1
binder,measurement,setting,value
"mCC1-Hexahis-Precomplexed (Mus musculus), P31809 (protein) MELASAHLHKGQVPWGGLLLTASLLASWSPATTAEVTIEAVPPQVAEDNNVLLLVHNLPLALGAFAWYKGNTTAIDKEIARFVPNSNMNFTGQAYSGREIIYSNGSLLFQMITMKDMGVYTLDMTDENYRRTQATVRFHVHPILLKPNITSNNSNPVEGDDSVSLTCDSYTDPDNINYLWSRNGESLSEGDRLKLSEGNRTLTLLNVTRNDTGPYVCETRNPVSVNRSDPFSLNIIYGPDTPIISPSDIYLHPGSNLNLSCHAASNPPAQYFWLINEKPHASSQELFIPNITTNNSGTYTCFVNNSVTGLSRTTVKNITVLEPVTQPFLQVTNTTVKELDSVTLTCLSNDIGANIQWLFNSQSLQLTERMTLSQNNSILRIDPIKREDAGEYQCEISNPVSVRRSNSIKLDIIFDPTQGGLSDGHHHHHH",glycan array binding signal (z-score),[1],0.014
same,glycan array binding signal (z-score),[2],-0.176
same,glycan array binding signal (z-score),[3],-0.156
same,glycan array binding signal (z-score),[4],-0.24
same,glycan array binding signal (z-score),[5],-0.152
same,glycan array binding signal (z-score),[6],-0.207
same,glycan array binding signal (z-score),[7],-0.233
same,glycan array binding signal (z-score),[8],-0.124
same,glycan array binding signal (z-score),[9],-0.178
same,glycan array binding signal (z-score),[10],-0.226
same,glycan array binding signal (z-score),[11],-0.129
same,glycan array binding signal (z-score),[12],-0.285
same,glycan array binding signal (z-score),[13],-0.188
same,glycan array binding signal (z-score),[14],0.836
same,glycan array binding signal (z-score),[15],-0.234
same,glycan array binding signal (z-score),[16],4.99
same,glycan array binding signal (z-score),[17],-0.045
same,glycan array binding signal (z-score),[18],9.54
same,glycan array binding signal (z-score),[19],2.09
same,glycan array binding signal (z-score),[20],-0.116
same,glycan array binding signal (z-score),[21],-0.24
same,glycan array binding signal (z-score),[22],-0.139
same,glycan array binding signal (z-score),[23],-0.131
same,glycan array binding signal (z-score),[24],-0.208
same,glycan array binding signal (z-score),[25],-0.104
same,glycan array binding signal (z-score),[26],-0.278
same,glycan array binding signal (z-score),Neu5Ac(a2-6)GalNAc,-0.234
same,glycan array binding signal (z-score),[27],-0.234
same,glycan array binding signal (z-score),[28],-0.231
same,glycan array binding signal (z-score),[29],-0.183
